# The supplement of paper PMC11417369
# ± gives the standard deviation of the averaged measurements. The list shows a part of the results.
# Tested on: PfAP2-LT AP2 domain (GST-tagged)
# Assay: gcPBM binding intensity (ln(normalized median fluorescence intensity)); higher = stronger DNA binding
# Summary of the method: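 The binding buffer was 1× PBS containing 1% milk, 0.2 mg/ml BSA, 0.5% salmon testes DNA and 0.03% Triton X-100. In it, GST-tagged P. falciparum DNA-binding domains expressed in E. coli were applied for 1 h to an Agilent 4 × 180k array of primer-extended double-stranded 36-bp intergenic genomic probes plus negative controls. Binding intensity, read with Alexa488 anti-GST antibody and a 488 nm scan, is the highest Masliner-normalised natural-log median intensity across replicate spots of either probe orientation.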
row,Sequence,gcPBM binding intensity (ln)
1,TTTTTTTTTTCTCCTGCATGCAGCATTTATATATTA [TGCATGCA_site390],9.31 ± 0.38
2,ATTGAAAAACCGTTTAGTACATATCATCACGTTTGT [XGTACX_site1295],8.91 ± 0.52
3,TATATATATATATGTACACACATCAATCATATTAAC [CACACA_site1946],9.52 ± 0.4
4,ATATATCATGCCAAGGGTACAAATGTGTAGTTGAAA [XGTACX_site2820],9.07 ± 0.43
5,TTTTTTAAATATTATTTTTATGAGTAAATATATTAT [GTGCAC_negctrl_site277],8.27 ± 0.52
6,TGAACATCATTTTTATGTACACACACATATACGTTG [XGTACX_site3864],9.54 ± 0.54
7,GACGTGGAAAAAAAAACACACACAAAAAAAAAAAAA [CACACA_site9324],9.26 ± 0.64
8,AAAACAAACAAAAAAAAAAAAAAAAATATCAATCTA [TGCATGCA_negctrl_site203],8.36 ± 0.67
9,TAATTACCATATGGTACACACATATTTATAGGTATA [CACACA_site7603],9.03 ± 0.31
10,GATAAAATAATATATAGTACTTTTTTAAAATAAATA [XGTACX_site522],8.27 ± 0.57
11,ACGTATAATATGTACACACACATATATACCAAAAAA [CACACA_site4661],9.5 ± 0.35
12,CGCGCACCCAGACACACACACACACCCATATATATA [CACACA_site2203],9.96 ± 0.25
13,GAAAAAAAAAAAAAAAGTACATTCTCTATTTCATGT [XGTACX_site3209],8.51 ± 0.42
14,ATAAATTTAAATAGGAGTACACAGCTTTATATTTTG [XGTACX_site4176],8.67 ± 0.41
15,TATAAAACACACACACATATATATATATATTTATAT [TGCATGCA_negctrl_site48],9.69 ± 0.17
16,AATTTTAAATTTAATTTACACACTTTTCATAGCATT [CACACA_site9264],8.94 ± 0.41
17,ATTTACAAAAATTTTGTATAAAGGGATTTTAAAATG [TGCATGCA_negctrl_site350],8.35 ± 0.4
18,ATATTTTTTTTTTTCACACACATTTAGATTGTATTA [CACACA_site3137],9.33 ± 0.52
19,AAAAAAAAAAAAAATTGTACGGATTCTTTTTTTTTT [XGTACX_site2898],8.56 ± 0.26

row,Sequence,gcPBM binding intensity (ln)
1,TTGTATAAAAAACTAAAAAATATAAAATAATAAGTG [CACACA_negctrl_site1704],8.56 ± 0.49
2,AACATTATCAAATAAACCATAAATCAATTCAATATG [CACACA_negctrl_site696],8.71 ± 0.45
3,AAACGTTTATTTTATTGTACATATGAAAAATGCTTC [XGTACX_site6896],8.63 ± 0.44
4,GAAATATTGAAACACACACACAAACATATATATATA [CACACA_site1911],10.1 ± 0.26
5,TTTATAGTTTTAAACAAAGTAATACAAATGTATATA [CACACA_negctrl_site1716],8.32 ± 0.47
6,TATAAAAAAAATAAAATAAAATAAAATAGAAAAATA [TGCATGCA_negctrl_site109],8.53 ± 0.64
7,CGTAATAATTAATGTTGTACCCACCAAAAAAATTAA [XGTACX_site8592],8.67 ± 0.41
8,ATTACATTTTTGTTTTGTACATATATTTTATAAACA [XGTACX_site494],8.76 ± 0.42
9,TATATTTATATATATACACACATAATAAAAAATATA [CACACA_site844],8.79 ± 0.32
10,TTGTTTTGTAATAAAAAAAAAATAATATAATATAAT [XGTACX_negctrl_site300],8.27 ± 0.49
11,TATTGAAAAAGTGGAAAAAAGTACATCATACGGGAA [CACACA_negctrl_site1091],8.86 ± 0.47
12,GTAAGAAACAGACACACACACATATAAATATAAATA [CACACA_site6515],9.86 ± 0.49
13,AATTTATTAATACAAAGTACTTTCTAATATGAATTT [XGTACX_site8013],8.62 ± 0.5
14,GAAAAATTAAAATGTGGTACAATAAAATTTTATTCA [XGTACX_site5030],8.59 ± 0.61
15,ATATTTATACTATACACACCCAATTTAAAAAAAAAT [CACACA_site1163],8.87 ± 0.34
16,TTATTGCGCACAATTTGTACATATATATATATAGAA [XGTACX_site7573],8.84 ± 0.4
17,AGTGTATTAAATTTTGAACACACAAAATAAAACATA [CACACA_site8483],8.95 ± 0.47
18,TTTAGACTTTTCTATAGTACATATTATATATATATA [XGTACX_site6532],8.64 ± 0.38
19,TTTTAATTTAAAAATTAATTTATATATATATATATA [TGCATGCA_negctrl_site447],8.635 ± 0.05

row,Sequence,gcPBM binding intensity (ln)
1,TATACCTTAATATACACACATACATATATATATATA [CACACA_site1339],9.46 ± 0.014
2,TAAATCACAAAATTATGTACTAAGAAGGAGCAACAT [XGTACX_site6742],8.86 ± 0.39
3,TATATACATTTTTATGTGCACATTTTATTTTTAAAT,9.04 ± 0.38
4,TAACAAAGTAAAAGAACATGCAAACACGCACACAGA [TGCATGCA_site374],9.36 ± 0.47
5,GGGGAAAAAGCAGGTTGTACAGTGATGTCCATATAA [XGTACX_site7606],8.99 ± 0.25
6,TTTATAAAATATCTTTCACACATTACTATGTATTAT [CACACA_site5148],8.88 ± 0.43
7,ATAAAAGTTTAATATTGTACGAACATGCGTTTCTAA [XGTACX_site1487],8.55 ± 0.4
8,AAAAAAAAATAAAAAAGTACAGGTAAATATATATAT [XGTACX_site5812],8.89 ± 0.48
9,AAAAAAAAAAAATATATATATATATATATAATATTT [GTGCAC_negctrl_site678],8.88 ± 0.43
10,GAATAAATAAAAATATGTACATAAATATATATATAT [XGTACX_site8858],9.3 ± 0.38
11,AAGACAAATATGTATTGTACGAACGCTTTTTAATTA [XGTACX_site1961],8.84 ± 0.4
12,ATACTTTAAAATAATACACACATGGAAAATAAAATT [CACACA_site697],9.04 ± 0.35
13,AAAAAAAAAAAAAAAACACACAATTGAATTATTAAG [CACACA_site2864],8.7 ± 0.61
14,TTTTATTATTAAACATGTACCCATATTATTGTTATG [XGTACX_site5563],8.79 ± 0.53
15,ATAAATAGAATAAAATGTACATGTAATACATATATA [XGTACX_site5475],8.89 ± 0.46
16,TTCTTAAAAAATCAAACACACATATATATATACATA [CACACA_site2296],8.65 ± 0.43
17,GTTTAGATAAAAGGGCGTACATCTATTTTTGACTAA [XGTACX_site7170],8.62 ± 0.36
18,AAAACAAAAAAATTTTGTACGAAACAATACTGTAAG [XGTACX_site7992],8.72 ± 0.47
